We go through 44 sequences from the supplement of paper PMC11417369.

This is one part of the list.

The assay has as its system PfAP2-HC AP2 domain (GST-tagged). Put plainly: gcPBM binding intensity (ln(normalized median fluorescence intensity)); higher = stronger DNA binding. Summed up: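 Using an Agilent 4 × 180k array, primer-extended double-stranded 36-bp intergenic genomic probes and negative controls were exposed for 1 h to GST-fused P. falciparum DNA-binding domains expressed in E. coli. Binding was carried out in 1× PBS with 1% milk, 0.2 mg/ml BSA, 0.5% salmon testes DNA and 0.03% Triton X-100, and protein was detected with Alexa488 anti-GST antibody and a 488 nm scan. Binding intensity is the highest Masliner-normalised natural-log median intensity across replicate spots of either probe orientation.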
As to “TATATATCTTTATGCACACACAAAGAAAATTTTCCT [CACACA_site7366]”, the “gcPBM binding intensity (ln)” value amounted to 9.92.

In the case of “ATATTATAGATATACACACACACATGCATGCACATA [CACACA_site6203]”, the “gcPBM binding intensity (ln)” value is 10.6.

On to “ATAAGAAGAAGAAAAACACACATATGTAAATATATA [CACACA_site3138]”, for which the “gcPBM binding intensity (ln)” value came out at 10.1.

Take “TAATTAAATATTTCAGTGCATTATTTTATGATCCAT [GTGCAC_site9456]”: the “gcPBM binding intensity (ln)” value was determined as 9.6.

Take “AGATGAACTAAAAAGGTGCTAAATATGTGACCACTG [GTGCAC_site9406]”: the “gcPBM binding intensity (ln)” value amounted to 9.64.

As to “ATTTAGAATGTTCCTACACACCAAATTTAAGTGTGC [CACACA_site7161]”, the “gcPBM binding intensity (ln)” value worked out at 9.88.

Take “TTTTTTTTAGTATGAACACACATATAGATTATAAAA [CACACA_site7391]”: the “gcPBM binding intensity (ln)” value worked out at 9.36.

For the sequence “GTATAATATTCATATTCACACATTAAAATATATTTA [CACACA_site4879]”, the “gcPBM binding intensity (ln)” value came out at 9.59.

Regarding “TAAAAATATATTATATGTACGTATAACAATGTATGA [XGTACX_site8606]”, the “gcPBM binding intensity (ln)” value was 9.68.

Consider “ACCTAATATTATTAAACATGCACATTTGCATAAATA [TGCATGCA_site870]”, for which the “gcPBM binding intensity (ln)” value stood at 9.51.

With “CAAAATGAAAGGAAAAGTACATTTAAATGAATAAAT [XGTACX_site8241]”, the “gcPBM binding intensity (ln)” value was determined as 9.75.

In the case of “AAGGACAACAAACAAACACACACAAAAAAAAAATAA [CACACA_site9263]”, the “gcPBM binding intensity (ln)” value came out at 10.2.

“AAGAATATAATCTTCACACATATATATATATATATA [CACACA_site5927]”: the “gcPBM binding intensity (ln)” value was determined as 9.62.

On to “TACACCTGCACGATTGCACACAAATATGTTTTGAAG [CACACA_site8656]”, for which the “gcPBM binding intensity (ln)” value was 9.95.

Take “TTATTATTAAAACACACACACAAAAAAAAAAAAAAA [CACACA_site1480]”: the “gcPBM binding intensity (ln)” value turned out to be 10.2.

In the case of “AAAAAAAAAAAAAAAACACACATGTATAATATAATA [CACACA_site2209]”, the “gcPBM binding intensity (ln)” value came out at 9.85.

As to “TATAGATGTGGTTTATGTACATACTATAAAAAATCA [XGTACX_site1400]”, the “gcPBM binding intensity (ln)” value amounted to 9.6.

Consider “TTATATATATATATATAATATATATATATTTAAATA [XGTACX_negctrl_site453]”, for which the “gcPBM binding intensity (ln)” value stood at 9.31.

As for “TATATACCTATATATACACACAAATACATAAGCTTC [CACACA_site1369]”, the “gcPBM binding intensity (ln)” value turned out to be 9.95.

With “AAATATTTTTTAATGTGTACATAGAACATATATATA [XGTACX_site3136]”, the “gcPBM binding intensity (ln)” value was 9.64.

For the sequence “ATAATATATATATTATGTACATATAAATTTTTTTTT [XGTACX_site5826]”, the “gcPBM binding intensity (ln)” value came to 9.66.

Take “TATAACTATAAAAGGAGTACTATATATATATATATA [XGTACX_site1388]”: the “gcPBM binding intensity (ln)” value stood at 9.47.

For ACTTATTTATTTTTAGTGCATTTAGTTTTATTTTAT, the “gcPBM binding intensity (ln)” value was found to be 9.86.

For the sequence “AGTATACACAAACACACACACACAAAAAAAAAAAAA [CACACA_site8036]”, the “gcPBM binding intensity (ln)” value amounted to 10.7.

On to “TCTACAAAATTATCATGTACATATTATTATAATTAT [XGTACX_site6585]”, for which the “gcPBM binding intensity (ln)” value was 9.73.

For the sequence “AATAGTACAAAAAAAAAAAAAAAAAAAAAAAAAAAA [CACACA_negctrl_site1376]”, the “gcPBM binding intensity (ln)” value was determined as 8.9.

With “TAAAAAGAAAAAAAGAGTACAAACAAAATAATAATT [XGTACX_site6071]”, the “gcPBM binding intensity (ln)” value came to 9.86.

As for “TATTTGCAATGCAAATGTACATGAATTTTTTTAATG [XGTACX_site7474]”, the “gcPBM binding intensity (ln)” value is 9.39.

“TTTTTTAAAAAACAAACACACACGTAGAAAAAAAAA [CACACA_site826]”: the “gcPBM binding intensity (ln)” value was 9.97.

Regarding “TAATTATATGGATACACACACATACATTTACATAAC [CACACA_site5744]”, the “gcPBM binding intensity (ln)” value was determined as 10.2.

Take “TTTTTTTATTTTTGTTGTACTTATAATTCTGTAAAA [XGTACX_site7344]”: the “gcPBM binding intensity (ln)” value turned out to be 9.5.

Turning to “TATAAATATAAATACACACACACACGCCAAAGCGTA [CACACA_site6181]”, the “gcPBM binding intensity (ln)” value was found to be 11.

In the case of “AAGAAAAATGTGTTTTTTTTTTTTTTTTTTTTCAAT [TGCATGCA_negctrl_site404]”, the “gcPBM binding intensity (ln)” value is 9.32.

In the case of “CTTTTTTTTTTAAATAGTACTTTCTCGTATACTCAT [XGTACX_site1842]”, the “gcPBM binding intensity (ln)” value turned out to be 9.63.

Take “TGTGAAATAAAATTTATACACACTTGCTAAATGATC [CACACA_site181]”: the “gcPBM binding intensity (ln)” value turned out to be 9.65.

As to “TTTTTTATTTATTGTTATACATCTTACTACTTATAA [GTGCAC_negctrl_site381]”, the “gcPBM binding intensity (ln)” value was 9.93.

On to “AATATATTTATATATAGTACTTTTATAATATCGTTT [XGTACX_site6658]”, for which the “gcPBM binding intensity (ln)” value is 9.63.

On to “AATACACATAATACATGTACTCACATTGTTATAACA [XGTACX_site4129]”, for which the “gcPBM binding intensity (ln)” value was 9.74.

“GATATGATTAACTTATGTTATTCTTGATGATTACGT [CACACA_negctrl_site354]”: the “gcPBM binding intensity (ln)” value was determined as 9.61.

As to “TACAAATTAATATGTACACACAAATATAAATATGTA [CACACA_site7016]”, the “gcPBM binding intensity (ln)” value was determined as 9.79.

With “TACGTTATATACAACTGTACTTGGATAATTATTAAC [XGTACX_site5614]”, the “gcPBM binding intensity (ln)” value is 9.73.

In the case of “AAGTTTTTTTCTTTTTTTCTCTCTTTTTTTTTTTTT [XGTACX_negctrl_site613]”, the “gcPBM binding intensity (ln)” value is 9.52.

Take “TTTTCTTTTTTGAACTGTACGCGTAAATTTAAAAAG [XGTACX_site882]”: the “gcPBM binding intensity (ln)” value was 9.36.

Regarding “TATATACTCAGACATACACACAAATAAAAAAACACC [CACACA_site5820]”, the “gcPBM binding intensity (ln)” value worked out at 10.8.
